Reference: publication PMC4560833
No constants are given. Whether binding was seen depends on the method and setting. Binding seen in cells or lysates may run through a third protein. Some results given as binding are weak or reduced against the parent protein; the word gives no strength. For some assays here: Sequences can lack the tags named with a protein. Each block holds one binder with its values, some of them ahead of it.

What was measured:
[1] = target: T1, PAQR3 (progestin and adipoQ receptors 3), overexpressed (UniProt Q6TCH7); test: co-IP; HEK293T cells transiently transfected; lysis buffer 20 mM Tris-HCl pH 7.5, 137 mM NaCl, 5 mM EDTA, 1% NP-40, 10% glycerol; antibody overnight at 4 °C, protein A/G agarose, immunoblot; in Fig. 4e cells in normal medium, LD medium or LD medium with 25-HC
T1 sequence: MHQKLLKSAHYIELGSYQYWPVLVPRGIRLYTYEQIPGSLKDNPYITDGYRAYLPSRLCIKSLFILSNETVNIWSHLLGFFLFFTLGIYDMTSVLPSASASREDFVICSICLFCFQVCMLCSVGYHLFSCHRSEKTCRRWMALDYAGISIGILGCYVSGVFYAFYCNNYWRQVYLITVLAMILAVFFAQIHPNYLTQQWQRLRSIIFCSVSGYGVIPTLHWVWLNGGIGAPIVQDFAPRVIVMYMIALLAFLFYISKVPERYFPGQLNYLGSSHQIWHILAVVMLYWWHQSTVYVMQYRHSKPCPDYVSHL

[2] = target: T2, Insig-1 cloned into p3Xflag-CMV-10 (UniProt O15503); test: as above
T2 sequence: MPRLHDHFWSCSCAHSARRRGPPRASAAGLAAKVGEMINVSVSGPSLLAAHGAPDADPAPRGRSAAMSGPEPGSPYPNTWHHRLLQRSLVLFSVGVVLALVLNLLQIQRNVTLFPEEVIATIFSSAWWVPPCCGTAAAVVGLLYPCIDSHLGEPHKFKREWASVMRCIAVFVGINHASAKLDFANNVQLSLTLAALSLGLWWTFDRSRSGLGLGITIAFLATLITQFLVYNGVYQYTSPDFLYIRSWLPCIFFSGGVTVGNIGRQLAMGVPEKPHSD

[3] = target: T3, endogenous Scap (human (endogenous in HEK293T)) (UniProt Q12770); test: co-IP; endogenous proteins in HEK293T cell lysate; IP and IB with the antibodies as indicated
T3 sequence: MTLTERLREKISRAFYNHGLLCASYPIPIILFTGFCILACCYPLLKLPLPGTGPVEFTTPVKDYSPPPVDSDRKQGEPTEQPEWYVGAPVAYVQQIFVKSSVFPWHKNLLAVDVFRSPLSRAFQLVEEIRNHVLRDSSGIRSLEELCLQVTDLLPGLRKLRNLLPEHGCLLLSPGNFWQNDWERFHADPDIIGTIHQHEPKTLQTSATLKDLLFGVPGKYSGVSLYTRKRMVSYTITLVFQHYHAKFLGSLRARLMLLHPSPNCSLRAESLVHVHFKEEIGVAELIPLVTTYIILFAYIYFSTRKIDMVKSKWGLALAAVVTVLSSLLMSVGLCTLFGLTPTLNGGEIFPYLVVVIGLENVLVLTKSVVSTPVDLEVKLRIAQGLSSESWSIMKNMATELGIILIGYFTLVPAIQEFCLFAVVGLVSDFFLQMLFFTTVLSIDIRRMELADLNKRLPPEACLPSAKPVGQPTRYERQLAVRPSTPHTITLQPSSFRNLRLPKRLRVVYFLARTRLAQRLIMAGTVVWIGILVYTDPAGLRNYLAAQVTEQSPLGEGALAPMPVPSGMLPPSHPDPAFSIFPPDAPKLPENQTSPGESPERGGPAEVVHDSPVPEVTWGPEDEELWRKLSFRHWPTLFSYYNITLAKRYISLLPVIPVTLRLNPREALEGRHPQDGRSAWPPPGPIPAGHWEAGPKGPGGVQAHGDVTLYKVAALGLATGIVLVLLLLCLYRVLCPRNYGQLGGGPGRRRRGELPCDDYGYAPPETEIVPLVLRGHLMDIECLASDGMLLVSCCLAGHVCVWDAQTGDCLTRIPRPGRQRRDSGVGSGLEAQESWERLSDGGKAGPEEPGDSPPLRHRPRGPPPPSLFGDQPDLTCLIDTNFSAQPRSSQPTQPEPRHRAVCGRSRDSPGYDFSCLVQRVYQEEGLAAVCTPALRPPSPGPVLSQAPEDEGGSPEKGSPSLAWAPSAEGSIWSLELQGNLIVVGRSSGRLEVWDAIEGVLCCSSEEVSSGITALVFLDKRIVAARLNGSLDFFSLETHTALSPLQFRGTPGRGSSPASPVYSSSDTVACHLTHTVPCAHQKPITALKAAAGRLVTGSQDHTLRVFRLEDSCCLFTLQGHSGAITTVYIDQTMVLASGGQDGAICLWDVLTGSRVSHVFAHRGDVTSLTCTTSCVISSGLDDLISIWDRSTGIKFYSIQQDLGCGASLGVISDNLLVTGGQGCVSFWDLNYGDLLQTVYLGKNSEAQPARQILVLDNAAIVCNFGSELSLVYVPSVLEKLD

[4] = target: T4, endogenous SREBP-2 (human (endogenous in HEK293T)) (UniProt Q12772); test: as above
T4 sequence: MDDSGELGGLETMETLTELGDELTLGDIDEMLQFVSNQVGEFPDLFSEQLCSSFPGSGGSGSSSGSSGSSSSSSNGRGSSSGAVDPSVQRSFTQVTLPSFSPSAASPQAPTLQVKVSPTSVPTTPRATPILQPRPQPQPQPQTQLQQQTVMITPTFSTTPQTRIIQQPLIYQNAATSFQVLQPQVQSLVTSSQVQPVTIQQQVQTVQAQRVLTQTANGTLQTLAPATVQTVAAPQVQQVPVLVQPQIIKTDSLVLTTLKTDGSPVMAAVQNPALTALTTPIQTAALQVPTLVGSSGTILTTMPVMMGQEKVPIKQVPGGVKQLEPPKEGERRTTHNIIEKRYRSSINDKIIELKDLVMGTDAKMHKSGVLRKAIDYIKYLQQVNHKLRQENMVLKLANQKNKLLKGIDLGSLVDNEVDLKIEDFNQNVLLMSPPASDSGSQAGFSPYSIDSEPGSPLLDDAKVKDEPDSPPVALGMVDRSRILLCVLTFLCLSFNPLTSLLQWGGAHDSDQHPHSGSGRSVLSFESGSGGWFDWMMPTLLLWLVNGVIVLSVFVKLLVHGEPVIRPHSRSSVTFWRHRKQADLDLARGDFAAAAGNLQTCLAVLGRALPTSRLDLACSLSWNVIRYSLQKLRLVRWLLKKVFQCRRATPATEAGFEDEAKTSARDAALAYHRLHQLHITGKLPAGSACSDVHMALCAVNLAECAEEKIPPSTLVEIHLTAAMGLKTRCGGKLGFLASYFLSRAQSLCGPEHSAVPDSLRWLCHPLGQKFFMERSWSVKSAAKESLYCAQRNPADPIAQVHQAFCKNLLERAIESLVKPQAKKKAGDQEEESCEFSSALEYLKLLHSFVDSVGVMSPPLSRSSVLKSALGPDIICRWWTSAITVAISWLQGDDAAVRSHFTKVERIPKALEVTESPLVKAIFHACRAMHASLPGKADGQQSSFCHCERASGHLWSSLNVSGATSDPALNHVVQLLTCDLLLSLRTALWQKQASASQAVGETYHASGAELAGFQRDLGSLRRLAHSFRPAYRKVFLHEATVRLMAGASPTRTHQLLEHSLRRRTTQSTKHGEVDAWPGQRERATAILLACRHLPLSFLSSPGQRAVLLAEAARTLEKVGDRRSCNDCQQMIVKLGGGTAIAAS

[5] = target: T5, Myc-tagged Scap (SREBP cleavage-activating protein) (UniProt Q12770); test: co-IP; two-step co-immunoprecipitation; 293T cells transfected with Myc–Scap, Flag-SREBP-2 and GFP–PAQR3; first IP anti-Myc, elution with Myc peptide in 250 mM NaCl; second IP anti-GFP or control IgG
T5 sequence: T3 sequence

binding [1]: binds
binding [2]: binds
B1: Myc-tagged Scap (SREBP cleavage-activating protein) (protein, UniProt Q12770 1-1279)
chain: T3 sequence

binding [3]: binds
binding [4]: binds
B2: endogenous PAQR3 (protein, UniProt Q6TCH7 1-311)
chain: T1 sequence

binding [5]: binds
B3: GFP-fused PAQR3 (protein, UniProt Q6TCH7 1-311)
chain: T1 sequence
